This note sets out measurements from the supplement of paper PMC8728848.

Common to all, as to assay: glycan array binding signal (z-score within array); higher = stronger binding
Details in all cases: glycan notation: IUPAC condensed, linker removed

The target of one assay is GlcNAc(b1-3)GalNAc. Put shortly:
(§1)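 Arrays were curated from the Consortium for Functional Glycomics database, 3228 in total, and kept only where the protein sequence was available. Binding is expressed as a within-array Z-score. This score was averaged across arrays of the same protein sequence at different concentrations or buffers and across linkers, and negative values can be read as non-binding.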

The target of the next assay is GlcNAc(b1-3)Man. In short, it runs like this: as §1
The target of assay [1] is GlcNAc(b1-3)[GlcNAc(b1-4)][GlcNAc(b1-6)]GlcNAc. Put shortly:
as §1

The target in assay [2] is GlcNAc(b1-3)[GlcNAc(b1-6)]Gal(b1-4)GlcNAc. In short, it runs like this: as §1
Assay [3] concerns the target GlcNAc(b1-3)[GlcNAc(b1-6)]GalNAc. In short, it runs like this: as §1
The target of assay [4] is GlcNAc(b1-4)Gal(b1-4)GlcNAc. Put shortly: as §1
A further assay addresses GlcNAc(b1-4)GlcNAc. In short, it runs like this:
as §1

In assay [5] the target is GlcNAc(b1-4)GlcNAc(b1-4)GlcNAc. Put shortly:
as §1

In assay [6] the target is GlcNAc(b1-4)GlcNAc(b1-4)GlcNAc(b1-4)GlcNAc(b1-4)GlcNAc. In short, it runs like this:
as §1

Assay [7] concerns the target GlcNAc(b1-4)GlcNAc(b1-4)GlcNAc(b1-4)GlcNAc(b1-4)GlcNAc(b1-4)GlcNAc. In short, it runs like this: as §1
In assay [8] the target is GlcNAc(b1-4)[GlcNAc(b1-6)]GalNAc. Put shortly:
as §1

Assay [9] addresses GlcNAc(b1-6)Gal(b1-4)GlcNAc. In short, it runs like this:
as §1

Another assay concerns the target GlcNAc(b1-6)GalNAc. In short, it runs like this:
as §1

The target in assay [10] is GlcNAc6S(b1-3)Gal(b1-4)GlcNAc. In short, it runs like this:
as §1

Another assay addresses Kdn(a2-3)Gal(b1-3)GalNAc. In short, it runs like this:
as §1

The target in the next assay is Kdn(a2-3)Gal(b1-3)GlcNAc. Put shortly:
as §1

In the next assay the target is Kdn(a2-3)Gal(b1-4)Glc. Put shortly:
as §1

A further assay addresses Kdn(a2-3)Gal(b1-4)GlcNAc. In short, it runs like this:
as §1

The target of assay [11] is Kdn(a2-3)Gal(b1-4)[Fuc(a1-3)]GlcNAc. In short, it runs like this:
as §1

The target of a further assay is Kdn(a2-6)Gal(b1-4)GlcNAc. In short, it runs like this:
as §1

Assay [12] addresses Man(a1-2)Man(a1-2)Man(a1-3)Man. Put shortly:
as §1

Assay [13] has as its target Man(a1-2)Man(a1-2)Man(a1-6)[Man(a1-3)]Man. Put shortly:
as §1

A further assay concerns the target Man(a1-2)Man(a1-3)Man. Put shortly:
as §1

Some of the results follow.

B1: LBL-152 (Laetiporus bicolor), B0D650 (protein)
chain: MSNEYNPPLGIAFRLCGLASDRVLFSRVSPSPEVFHHPKSEVYPDQWFVAIPGSGQNAGCYAIKSKNTGKVLFSRMSPDPRVGHIDGDGKYPDNWFKFEAGSGKYAGYFRLRAVASDTVLVSRTSTGTDTQVINYPATSAKYDDQYFTILFDHHHHHH
As to B1, the “glycan array binding signal (z-score)” value with GlcNAc(b1-3)GalNAc is -0.15; with GlcNAc(b1-3)Man it was -0.156; in [1], -0.153; in assay [2], -0.145; in assay [3], -0.154; in assay [4], -0.153. The “glycan array binding signal (z-score)” value was -0.157 in the assay with GlcNAc(b1-4)GlcNAc; -0.157 in assay [5]; -0.163 in [6]; -0.152 in [7]; -0.141 in assay [8]; -0.155 in [9]. Also, the “glycan array binding signal (z-score)” value with GlcNAc(b1-6)GalNAc is -0.155; in assay [10] it was -0.157; with Kdn(a2-3)Gal(b1-3)GalNAc, -0.157; with Kdn(a2-3)Gal(b1-3)GlcNAc it was -0.16; with Kdn(a2-3)Gal(b1-4)Glc it was -0.145; in the assay with Kdn(a2-3)Gal(b1-4)GlcNAc, -0.153. The “glycan array binding signal (z-score)” value is -0.161 in assay [11]; -0.153 with Kdn(a2-6)Gal(b1-4)GlcNAc; -0.158 in [12]; -0.157 in assay [13]; -0.152 with Man(a1-2)Man(a1-3)Man.
